# Assay results reported in PubChem BioAssay AID2100 (National Center for Advancing Translational Sciences (NCATS), 2009).
# Among all 300,000 compounds or so, about 1,200 (0.4%) were called active. The shares of active, inactive and inconclusive entries below differ from those in the screen. The call rests on the fitted dose curve; in most records, active means well fitted inhibition curve with a large enough effect; inconclusive means small, poorly fitted or top-dose-only effect, or another doubt; inactive means no such curve, though single readings can be large or run the other way. A potency beside an inconclusive call is a rough fit, not a confirmed value.
# Target: Lysosomal alpha-glucosidase (Homo sapiens) (UniProt P10253)
# Test: qHTS Assay for Inhibitors and Activators of Human alpha-Glucosidase Cleavage of Glycogen;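 on activity change, negative = inhibition: 0% = full enzyme reaction and -100% = no-enzyme basal signal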
# Conditions: recombinant GAA, glycogen substrate, Amplex Red glucose oxidase fluorescence; activity change, negative = inhibition: at 76.4 µM (top of the series) unless noted
# Description: NIH Chemical Genomics Center [NCGC] NIH Molecular Libraries Probe Production Centers Network [MLPCN] MLPCN Grant: R03 MH084841-01 Assay Submitter (PI): Wei Zheng NCGC Assay Overview: Alpha-glucosidase is responsible for the hydrolysis of terminal, non-reducing 1,4-linked alpha-D-glucose residues, which releases alpha-D-glucose. It is a lysosomal hydrolase that is required for the degradation of a small percentage (1-3%) of cellular glycogen in humans. Deficiency of this enzyme results in glycogen-storage disease type II (GSDII), also referred to as Pompe disease, an autosomal recessive disorder. Structurally normal glycogen is accumulated in the lysosomes and cytoplasm in affected patients, primarily in muscle tissues. Excessive glycogen storage within lysosomes may interrupt normal functioning of other organelles and leads to cellular injury. In turn, this leads to enlargement and dysfunction of the entire organ involved (eg: cardiomyopathy and muscle weakness). It has been reported that the improper folding and trafficking of alpha-glucosidase resulting from genetic mutations may account for a significant number of Pompe patients. […] We optimized this alpha-glucosidase assay in 1536-well plate format for identification of novel small molecule inhibitors or activators with structures other than the sugar analogs in order to develop new pharmacological chaperones. Previous assays of alpha-Glucosidase have utilized a non-natural fluorescent substrate to probe enzyme activity. The present assay measures enzyme activity on glycogen using a coupled-assay system to glucose oxidase.
# NCGC Assay Protocol Summary: This is an enzyme assay using glycogen from bovine liver (Sigma catalog #: G0885) as the substrate and recombinant human alpha-glucosidase as the enzyme preparation. Upon hydrolysis of the substrate, the glucose product can be detected using the Amplex Red Glucose Oxidase Assay Kit (Invitrogen catalog #: A22189). The product of this reaction can be read with a fluorescence plate reader with an excitation at 573 nm and an emission at 610 nm. Data were normalized to the controls for basal activity (without enzyme) and 100% activity (with enzyme). The AC50 values were determined from concentration-response data modeled with the standard Hill equation. Assay buffer for enzyme reaction: 50 mM citric acid (titrated with potassium phosphate to pH 5.0), 0.01% Tween-20 (pH 5.0 is an optimal condition for this enzyme assay) Assay buffer for Amplex Red reaction: Tris-HCl, pH 7.5 1536-well assay protocol for the alpha-glucosidase assay: (1) Add 2 ul/well alpha-glucosidase enzyme solution (4 nM final) (2) Add 23 nL compounds in DMSO solution. The final titration was 0.7 nM to 77 uM. (3) Add 1 ul of glycogen substrate solution (30 ug) (4) Incubate at 37 C for 40 min (5) Add 2 ul tris-HCl buffer with Amplex Red reagents (6) Incubate 45 min at room temperature. (7) Detect the assay plate in a ViewLux plate reader (PerkinElmer) with Ex=573 nm and Em=610nm. Keywords: Alpha-glucosidase, Pompe Disease, pharmacological chaperone, chaperone therapy, high throughput screening, alpha-glucosidase inhibitor, MLSMR, MLSCN, NIH Roadmap, qHTS and NCGC
# Potency means the concentration at half of the fitted maximal effect.
Structure (SMILES),Potency,"activity change, negative = inhibition"
CCNC(=S)N/N=C(\C)c1cccc(OC)c1,"inconclusive: 31.6 µM [inhibitor, single point]",
CCCN(CCC)S(=O)(=O)c1ccc2c(c1)CCCN2C(C)=O,,inconclusive: 33.7% [activator]
COc1ccc(NS(=O)(=O)c2cccs2)cn1,,inactive: -2.5%
CCC1c2ccc(C)n2CCN1C(=O)Nc1cc(Cl)ccc1OC (stereo not drawn),"inconclusive: 31.6 µM [activator, single point]",
O=C(Nc1cccs1)Nc1ccccc1Cl,"inconclusive: 14 µM [inhibitor, partial curve]",
C/C(CC(=O)Nc1ccc(Cl)c(C(F)(F)F)c1)=N\NC(=O)c1ccccc1O,"inconclusive: 22.4 µM [inhibitor, partial curve]",
O=C(NCc1ccccc1)C(c1ccncc1)N(C(=O)c1ccccn1)c1ccccc1 (stereo not drawn),active: 11.2 µM,
Cc1onc(-c2ccccc2)c1C(=O)NC(=S)NNC(=O)c1ccncc1,"inconclusive: 50.1 µM [inhibitor, single point]",
CCN1C(=O)C(CC(=O)Nc2c(C)cccc2C)Nc2cc(S(=O)(=O)N(C)C)ccc21 (stereo not drawn),"inconclusive: 7.94 µM [inhibitor, full curve]",
O=C(c1ccc2ncsc2c1)N1CCN(c2ccc(O)cc2)CC1,active: 9.92 µM,
O=C1NC(=O)/C(=C\c2cn(Cc3ccccc3F)c3ccccc23)N1,,inactive: 6.75%
O=C(NC(=S)Nc1ccccc1N1CCCC1)c1cccc(F)c1,"inconclusive: 8.91 µM [inhibitor, partial curve]",
O=C(NNS(=O)(=O)c1ccc2ccccc2c1)c1cccs1,"inconclusive: 28.2 µM [inhibitor, single point]",
CCCN1C(=O)S/C(=C/c2ccc(N3CCOCC3)o2)C1=O,,inactive: -25.5%
Cc1c(N=Cc2nc3ccccc3n2C)c(=O)n(-c2ccccc2)n1C,active: 11.2 µM,
COc1ccc(NCc2cc3ccccc3[nH]c2=O)cc1,"inconclusive: 35.5 µM [inhibitor, partial curve]",
Oc1ccc(/C=N/Nc2nccnc2Cl)c(O)c1,active: 11.2 µM,
COc1ccc(CC(=O)O)cc1O,"inconclusive: 25.1 µM [inhibitor, single point]",
CC(=O)Oc1c(Br)cc(N(C(C)=O)S(=O)(=O)c2ccccc2)c2ccccc12,,inactive: 0.659% [at 76.3 µM]
CCOC(=O)c1ccccc1N1C(=O)CSC1=S,active: 28 µM,
Cn1nnnc1N=N/C(=N/Nc1ccccc1)c1ccccc1,"inconclusive: 14.1 µM [inhibitor, partial curve]",
COc1ccc(OC(=O)COc2cc(C)ccc2C)cc1,"inconclusive: 35.5 µM [inhibitor, single point]",
COc1cc(/C=N/Nc2ccc(C(=O)O)cc2)ccc1O,active: 5.62 µM,
CCCCn1c(/C=C/c2ccco2)nc2ccccc21,"inconclusive: 44.7 µM [activator, single point]",
COc1cc(OC)c(-c2c3cc(O)c(=O)cc-3oc3cc(O)c(O)cc23)cc1OC,"inconclusive: 10 µM [inhibitor, partial curve]",

Structure (SMILES),Potency,"activity change, negative = inhibition"
CC1C(=O)NN=C1C(=O)N/N=C\c1ccc(O)cc1O (stereo not drawn),,inactive: -1.97%
COc1ccc(C(=O)NNC(=S)NC(=O)c2ccco2)cc1,"inconclusive: 35.5 µM [inhibitor, single point]",
CCN(CC)S(=O)(=O)c1ccc2c(c1)NC(=O)C1CCCN21 (stereo not drawn),"inconclusive: 50.1 µM [inhibitor, single point]",
CN(C)c1nc(N)c2ncc(=S)[nH]c2n1,"inconclusive: 39.8 µM [inhibitor, partial curve]",
CC1CCN(CCNC(=O)c2ccc(Cn3c(SCc4ccccc4)nc4cccnc43)cc2)CC1,,inactive: 11.3% [at 76.3 µM]
COc1ccc(CN2CCC(=O)N([C@H](CO)Cc3ccccc3)CC2)cc1OC,"inconclusive: 50.1 µM [inhibitor, single point]",
O=C(Nc1cccc(C(F)(F)F)c1)c1ccc(Cn2cc(Br)cn2)o1,,inactive: -5.6%
Cc1cc(Oc2ccc(-c3nnc(-c4ccccc4)o3)cc2[N+](=O)[O-])ccc1Cl,,inactive: 6.56%
O=C1CSC(=S)N1/N=C/c1ccc(Cl)c([N+](=O)[O-])c1,"inconclusive: 50.1 µM [inhibitor, single point]",
O=C(Nc1cccc2cccnc12)c1ccc(Cl)cc1,"inconclusive: 6.31 µM [inhibitor, partial curve]",
CSc1nn(Cc2ccc(Br)cc2)c(N(C(C)=O)C(C)=O)c1S(=O)(=O)c1ccccc1,,inactive: 1.1% [at 76.3 µM]
O=C(CCSc1ccc(Cl)cc1)N1CCN(c2ccc(O)cc2)CC1,active: 17.8 µM,
CC(C)C(C)NC(=O)CSc1nnc(-c2c[nH]c3ccccc23)o1 (stereo not drawn),"inconclusive: 1.26 µM [inhibitor, full curve, poor fit]",
Cc1nc(C)c(C(=O)NNS(=O)(=O)c2ccc([N+](=O)[O-])cc2)s1,"inconclusive: 39.5 µM [inhibitor, single point]",
S=c1[nH]nc(C2CCCCC2)n1/N=C/c1ccccc1,"inconclusive: 35.5 µM [inhibitor, single point]",
NNC(=O)c1oc2nc(-c3ccccc3)cc(-c3ccco3)c2c1N,"inconclusive: 28.2 µM [inhibitor, single point]",
Cc1[nH]n(-c2ccccc2)c(=O)c1-c1ccc(Cl)cc1,"inconclusive: 31.6 µM [inhibitor, partial curve]",
NNc1nc(-c2ccccc2)c2cc(Cl)ccc2n1,"inconclusive: 31.6 µM [inhibitor, partial curve]",
COCCn1c(SCC(=O)NCc2ccc3c(c2)OCO3)nnc1-c1c[nH]c2ccccc12,"inconclusive: 17.8 µM [inhibitor, partial curve]",
CC(Nc1ccc(Br)cc1)C(=O)N/N=C/c1ccccc1OCc1ccccc1 (stereo not drawn),"inconclusive: 35.5 µM [inhibitor, single point]",
N#Cc1nc(Cl)c(Cl)c(NN)c1Cl,"inconclusive: 31.6 µM [inhibitor, single point]",
CC(=O)Nc1sc2c(c1C(c1ccccn1)N1CCN(C)CC1)CCCC2 (stereo not drawn),,inactive: -7.22%
O=S(=O)(N/N=C\c1cccn1-c1ccccc1)c1ccc2ccccc2c1,"inconclusive: 28 µM [inhibitor, partial curve]",
Cc1ccc(NC(=O)CSc2nnc(N)s2)c(C)c1,"inconclusive: 11.2 µM [inhibitor, partial curve]",
COc1ccc(O)c(-c2[nH]ncc2C(=O)c2ccccc2C)c1,"inconclusive: 15.8 µM [inhibitor, partial curve]",

Structure (SMILES),Potency,"activity change, negative = inhibition"
O=C(COc1cccc(C(F)(F)F)c1)N1CCN(c2ccc(O)cc2)CC1,active: 2 µM,
CC1=C(C#N)C(=O)N(C2CCS(=O)(=O)C2)C(=O)/C1=C\c1ccco1 (stereo not drawn),,inactive: -12.6%
COc1cccc(NC(=S)N/N=C2/CCCCc3ccccc32)c1,"inconclusive: 31.6 µM [inhibitor, partial curve]",
Cn1c(CCNC(=O)c2ccco2)nc2cc(NC(=O)COc3ccc(Cl)cc3)ccc21,,inactive: 13.2% [at 76.3 µM]
O=c1c(O[C@@H]2O[C@H](CO)[C@@H](O)[C@H](O)[C@H]2O)c(-c2ccc(O)c(O)c2)oc2cc(O)cc(O)c12,active: 3.55 µM,
Cn1c(=O)c2c(nc(N/N=C/c3cccs3)n2C)n(C)c1=O,"inconclusive: 39.8 µM [inhibitor, partial curve]",
Oc1ccc(C(c2nnnn2C2CCCCC2)N2CCOCC2)cc1 (stereo not drawn),,inactive: -4.82%
Cc1cc(NC(=O)c2sc(Nc3cccc(C(F)(F)F)c3)nc2N)no1,"inconclusive: 50.1 µM [inhibitor, single point]",
N/C(COc1ccccc1)=N\NS(=O)(=O)c1ccccc1,"inconclusive: 20 µM [inhibitor, partial curve]",
COc1ccc(Cl)cc1NC(=S)Nc1cccc(C)c1,"inconclusive: 35.5 µM [inhibitor, single point]",
Cc1ccc(NC(=O)C(Cc2ccccc2)NS(=O)(=O)c2cccc3nsnc23)c(C)c1 (stereo not drawn),"inconclusive: 11.2 µM [inhibitor, single point]",
Oc1ccccc1C=NC1=NN(c2cccc(C(F)(F)F)c2)CC1,"inconclusive: 14.1 µM [inhibitor, partial curve]",
Cc1ccc(-c2csc(N/N=C/c3ccco3)n2)cc1,"inconclusive: 25.1 µM [inhibitor, partial curve]",
O=C(O)CCc1ccccc1OC(=O)c1ccccc1,,inactive: 2.09%
COc1ccc(C(Nc2cc(C)ccn2)c2ccc3ccc(C)nc3c2O)cc1 (stereo not drawn),"inconclusive: 39.8 µM [inhibitor, single point]",
COc1ccccc1CNc1ncc(-c2ccc(F)cc2)n1C,"inconclusive: 31.6 µM [inhibitor, single point]",
COc1cccc(NC(=O)/C(C#N)=C\c2cn(Cc3ccc(Cl)cc3)c3ccccc23)c1,,inactive: 10.4% [at 76.3 µM]
Cc1ccsc1/C=N/Nc1nc2ccccc2s1,"inconclusive: 28 µM [inhibitor, partial curve]",
COc1ccccc1N1CCN(C/C=C/c2ccc(N(C)C)cc2)CC1,,inconclusive: 49.7% [activator]
CN1/C(=C\C(=O)COC(=O)c2ccc(O)c(O)c2)C(C)(C)c2ccccc21,active: 10 µM,
COc1cc(CN2CC(=O)N(c3ccccc3Cl)C2=S)cc(OC)c1OC,"inconclusive: 50.1 µM [inhibitor, single point]",
COc1cc(C2Nc3cccc4cccc(c34)N2)cc(OC)c1OC(C)=O,"inconclusive: 35.5 µM [activator, single point]",
O=C(/C=C(\O)c1ccccc1)C(=O)NNC(=O)c1ccccc1,"inconclusive: 28 µM [inhibitor, single point]",
